Laboratory results from PubChem BioAssay AID651820 (National Center for Advancing Translational Sciences (NCATS), 2012).
Out of some 340,000 compounds screened, about 12,000 (3.5%) were called active. The shares of active, inactive and inconclusive entries below differ from those in the screen. Calls come from the whole dose curve; as a rule, active = well fitted inhibition curve with a large enough effect; inconclusive = small, poorly fitted or top-dose-only effect, or another doubt; inactive = no such curve, though single readings can be large or run the other way. No potency is given beside an inconclusive call; the fits are too rough.
% is set by controls: 0 for no effect and ±100 for the full control effect; potency is the fitted concentration of half-maximal effect; tags give direction and shape of the fitted curve.

Assay: qHTS Assay for Inhibitors of Hepatitis C Virus (HCV)
Settings: Huh7.5.1 HCVcc-Cre (HCVcc is cell-culture hepatitis C virus) infection, luciferase reporter, 44 h; activity change, negative = inhibition: at 41.8 µM (top of the series) unless noted
Summary of the method: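 Compounds are dispensed onto cells plated 4 h earlier at 1,000 per well, with HCVcc-Cre virus (about 0.5 moi) added next. Following 44 h of culture, luminescent signal is measured for 15 sec after 15 min with substrate at room temperature.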
In the case of `CCCCN(C(=O)c1ccc([N+](=O)[O-])s1)c1c(N)n(CCCC)c(=O)[nH]c1=O`, the “activity change, negative = inhibition” value is reported as inactive: 8.52%.
With `O=C1CCC(C(=O)OCC(=O)N2N=C3/C(=C/c4ccccc4)CCCC3C2c2ccccc2)N1` (stereo unspecified) the Potency was inconclusive [inhibitor, single point].
For `COc1ccc(-c2nn(-c3ccccc3)cc2/C=N/Nc2ccccn2)cc1OC`, the Potency was active: 10 µM.
For `Nc1nc(-c2ccccc2)c(N=Nc2ccccc2Cl)s1`, the Potency was active: 11.2 µM.
With `N#CCSc1nnc(-c2cnccn2)n1Cc1ccccc1` the Potency was inconclusive [inhibitor, single point].
In the case of `C[C@@H]1CN([C@@H](C)CO)C(=O)c2cccc(NC(=O)Nc3ccc(F)cc3)c2O[C@@H]1CN(C)Cc1ccc(Oc2ccccc2)cc1`, the Potency is reported as inconclusive [inhibitor, single point].
For `COc1cc(C2NC(=O)NC(C)=C2C(=O)OC2CCCCC2)cc(Br)c1O` (stereo unspecified), the “activity change, negative = inhibition” value was inactive: 20.8%.
In the case of `C#CCn1c(=NC(=O)c2ccc(S(=O)(=O)N3CCCc4ccccc43)cc2)sc2cc(S(N)(=O)=O)ccc21`, the Potency is reported as inconclusive [inhibitor, partial curve].
With `Nc1nonc1-n1nnc(C(=O)N/N=C/C=C/c2ccccc2)c1CSC1=NCCS1` the Potency was inconclusive [inhibitor, partial curve, poor fit].
With `CCOC(=O)C1CCN(C(=O)c2ccccc2CCc2ccccc2)CC1` the “activity change, negative = inhibition” value was inactive: -1.46%.
With `COc1cccc(COc2ccc3c(C)c(Cc4ccccc4)c(=O)oc3c2)c1` the Potency was inconclusive [inhibitor, partial curve].
For `COc1cc(OC)cc(C(=O)Nc2ccc(S(=O)(=O)Nc3cc(C)on3)cc2)c1`, the “activity change, negative = inhibition” value was inactive: 21.4%.
In the case of `CCn1c2ccccc2c2cc(NC(=O)c3cccc(OC)c3OC)ccc21`, the Potency is reported as inconclusive [inhibitor, partial curve].
For `CC(C)(C)[C@@H]1CCC(=O)N(CC[C@H](N=[N+]=[N-])c2ccccc2)CC1`, the Potency was inconclusive [inhibitor, partial curve].
With `Nc1nc(Cl)c(C=O)c(N2CCCCC2)n1` the Potency was active: 10 µM.
In the case of `COC(=O)[C@]1(Cc2ccccc2)N[C@H](CN(C)C(=O)Nc2ccc(C(F)(F)F)cc2)[C@@H]2C(=O)N(C)C(=O)[C@@H]21`, the Potency is reported as inconclusive [inhibitor, single point].
For `COCC(=O)N1CCC2CC1c1c(-c3ccc(C(F)(F)F)cc3)cccc12` (stereo unspecified), the Potency was inconclusive [inhibitor, single point].
In the case of `Oc1ccc(C(c2nnnn2CCc2ccccc2)N2CCN(c3nc4ccccc4s3)CC2)cc1` (stereo unspecified), the Potency is reported as active: 12.6 µM.
For `Cc1cccc(OCC(O)Cn2c(NCCCOC(C)C)nc3c2c(=O)[nH]c(=O)n3C)c1` (stereo unspecified), the “activity change, negative = inhibition” value was inactive: -11%.
With `O=C(Nc1ccc([N+](=O)[O-])cn1)c1ccc(Br)o1` the “activity change, negative = inhibition” value was inactive: 6.51%.
In the case of `CCC(C)NC(=O)c1ccccc1NC(=O)C1COc2ccccc2O1` (stereo unspecified), the Potency is reported as active: 22.4 µM.
With `COc1ccccc1C(=O)OCC(=O)Nc1ccc(OC(F)F)cc1` the Potency was inconclusive [inhibitor, single point].
With `O=S(=O)(c1cccc(-c2csc(-c3cccnc3)n2)c1)N1CCOCC1` the Potency was inconclusive [inhibitor, partial curve].
With `COc1ccc(NC(=O)CCCNC(=O)Cn2cnc3sc4c(c3c2=O)CCCC4)c(OC)c1` the “activity change, negative = inhibition” value was inactive: -1.82%.
With `O=C(Nc1ccc(F)c(S(=O)(=O)N2CCOCC2)c1)C1CCCCC1` the Potency was inconclusive [inhibitor, full curve, poor fit].
With `CCc1nn(CC(=O)N2CCN(c3ccc(F)cc3)CC2)c(=O)c2cc3occc3n12` the Potency was inconclusive [inhibitor, partial curve].
For `N#CC1c2ccccc2C=CN1C(=O)c1ccccc1` (stereo unspecified), the Potency was inconclusive [inhibitor, partial curve].
For `CC(C)Oc1ccc(S(=O)(=O)N2CCOCC2)cc1NC(=O)CCCSc1ccccc1`, the Potency was active: 11.2 µM.
In the case of `O=C(O)C/C(=C\c1ccc2c(c1)OCO2)c1nc2ccccc2s1`, the “activity change, negative = inhibition” value is reported as inactive: 12%.
In the case of `CSc1ncccc1C(=O)OCC(=O)Nc1ccc2c(c1)OCO2`, the “activity change, negative = inhibition” value is reported as inactive: 7.21%.
In the case of `Cc1cccc(NC(=O)c2cc(NC(=O)C3CCCCC3C(=O)O)ccc2N2CCCCC2)c1` (stereo unspecified), the Potency is reported as inconclusive [inhibitor, single point].
For `CCN(CC)c1ccc(/C=N/NC(=O)OC(C)(C)C)cc1`, the “activity change, negative = inhibition” value was inactive: -11.7%.
With `CC1=C2C3OC(=O)C(C)C3CCC2(C)C=CC1=NO` (stereo unspecified) the “activity change, negative = inhibition” value was inactive: -6.42%.
With `COc1cccc(N(C(=O)c2cccs2)c2nc3ccccc3s2)c1` the Potency was inconclusive [inhibitor, partial curve].
For `O=C(c1ccc(CS(=O)Cc2ccccc2Cl)o1)N1CCN(c2cccc(Cl)c2)CC1` (stereo unspecified), the Potency was inconclusive [inhibitor, single point].
In the case of `CCOC(=O)c1c(C)[nH]c(C(=O)Nc2cc(OCC)c(N3CCOCC3)cc2OCC)c1C`, the Potency is reported as inconclusive [inhibitor, partial curve].
For `Cc1cc(=O)[nH]c(SCC(=O)c2c(N)n(C)c(=O)n(C)c2=O)n1`, the “activity change, negative = inhibition” value was inactive: 14.6%.
For `N#CCCCSc1nnc(CSc2nc3ccccc3s2)n1-c1ccccc1`, the Potency was inconclusive [inhibitor, single point].
For `COc1ccc2[nH]c(=O)c(CN(Cc3ccc(C)cc3)Cc3nnnn3CC3CCCO3)cc2c1` (stereo unspecified), the Potency was “inactive”.
In the case of `COC(=O)c1[nH]c2ccc(C)cc2c1NC(=O)CN1CCc2cc(OC)c(OC)cc2C1`, the Potency is reported as active: 10 µM.
For `CC(C)C(=O)N1CCN(CCN=Cc2c(O)n(C)c(=O)n(C)c2=O)CC1`, the “activity change, negative = inhibition” value was inactive: 7%.
In the case of `Cc1nc2cc(NC(=O)COc3ccccc3C#N)ccc2n1-c1ccccc1`, the Potency is reported as inconclusive [inhibitor, single point].
With `Cc1nn(-c2cccc(Cl)c2)nc1C(=O)Nc1cccc(C(=O)NC2CC2)c1` the Potency was active: 10 µM.
With `O=C(Nc1ccccc1)c1ccc(-c2ccccc2)s1` the “activity change, negative = inhibition” value was inactive: 6.87%.
For `COc1cc(Br)c(C(C)NC(=O)c2ccc(C)cc2)cc1OC` (stereo unspecified), the Potency was inconclusive [inhibitor, partial curve].
For `CN(C)CCNC(=O)Nc1cccc(Cl)c1Cl`, the Potency was inconclusive [inhibitor, partial curve].
